Results as given in PubChem BioAssay AID1745845 (National Center for Advancing Translational Sciences (NCATS), 2022).
In all, about 360,000 compounds went through this assay and about 2,600 (0.72%) were called active. The shares of active, inactive and inconclusive entries below differ from those in the screen. The call rests on the fitted dose curve; in most records, active means well fitted inhibition curve with a large enough effect; inconclusive means small, poorly fitted or top-dose-only effect; inactive means no such curve, though single readings can be large or run the other way. Where the call is inconclusive, the potency comes from a doubtful curve fit.

Test: Primary qHTS for Inhibitors of ATXN expression; further: nearly all actives have a fitted effect of over 55% in size
Settings: HEK-293 ATXN2-luciferase reporter, luminescence, 24 h; activity change, negative = inhibition: at 57 µM (top of the series)
Outline: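 ATXN2-luciferase reporter cells (luciferase flanked by upstream and downstream ATXN2 gene portions) were treated 24 h at 37 °C with compounds at up to 57 uM. SteadyGlo luminescence gave expression; GF-AFC fluorescence gave viability.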
On the % scale 0 is the no-effect control and ±100 the full control effect; potency means the concentration at half of the fitted maximal effect; tags describe the fitted curve by direction and shape.

Potency, inconclusive:
C=C1C(=O)[C@@]23[C@H](O)C[C@@H]4C(C)(C)CC[C@H](O)[C@@]4(C)[C@@H]2CC[C@@H]1[C@H]3O 7.08 µM [inhibitor, single point]
Cc1ccc(NC(=O)c2ccc(N3CCOCC3)c([N+](=O)[O-])c2)cc1S(=O)(=O)N1CCOCC1 0.794 µM [inhibitor, full curve, poor fit]
COc1ccc(OC)c(-c2c3cc(O)c(=O)cc-3oc3cc(O)c(O)cc23)c1 37.7 µM [inhibitor, single point]
OC(c1cc(Cl)cc(Cl)c1)c1ncc(-c2ccccc2C(F)(F)F)[nH]1 (stereo not drawn) 39.8 µM [inhibitor, single point]
Cn1nnc2c[n+](CC(=O)c3ccc4ccccc4c3)cc(Br)c21 39.8 µM [inhibitor, single point]
CCCn1c(NCc2ccc(N(CC)CC)cc2)nc2ccccc21 39.8 µM [inhibitor, single point]
CC(C)(C)c1ccc(C(=O)O[C@H]2[C@H](Cc3ccccc3)NS(=O)(=O)[C@H]3C[C@@H]4C=C[C@]23O4)cc1 31.6 µM [inhibitor, partial curve, poor fit]
O=C1/C(=N\S(=O)(=O)c2cccs2)C([n+]2cccc(Cc3ccccc3)c2)=C([O-])c2ccccc21 39.8 µM [inhibitor, partial curve, poor fit]
CCOc1cccc(CN2CCC(n3nccc3NC(=O)CCCc3ccccc3)CC2)c1 17.8 µM [inhibitor, single point]
O=C1c2cccc3cccc(c23)C(=O)N1CCN1CCN(CC(O)COCc2ccc(Cl)cc2)CC1 (stereo not drawn) 39.8 µM [inhibitor, single point]
COc1cccc(N2CCN(C(=O)c3cnn(-c4ccc(C)cc4C)c3C3CCN(C(=O)OC(C)(C)C)CC3)CC2)c1 39.8 µM [inhibitor, single point]
Cc1cccc(NC(=O)c2nc[nH]c2C(=O)N[C@@H](Cc2ccccc2)C(=O)OC(C)(C)C)c1 39.8 µM [inhibitor, single point]
CCSC1(SCC)N=C(N)C2(C#N)C(c3ccc(OC)c(OC)c3OC)C12C#N (stereo not drawn) 37.7 µM [inhibitor, single point]
Cc1ccccc1OCC(=O)Nc1ccc(N2CCN(C(=O)C(C)C)CC2)c(Cl)c1 15.8 µM [inhibitor, partial curve]
O=C(Nc1ccn(Cc2c(F)c(F)c(F)c(F)c2F)n1)c1cccc(Cn2cc([N+](=O)[O-])cn2)c1 17.8 µM [inhibitor, partial curve, poor fit]
O=c1c(Cl)c(Cl)cnn1Cc1nnc(-c2ccc(Cl)cc2)o1 39.8 µM [inhibitor, single point]
Cc1ccc(C)c(Cn2nc(-c3cc(C)ccc3C)ccc2=O)c1 39.8 µM [inhibitor, single point]
CN(Cc1ccccc1)c1ccc(C(CC(N)=O)NC(=O)c2ccccc2)cc1[N+](=O)[O-] (stereo not drawn) 25.1 µM [inhibitor, single point]
Cc1cc(C(=O)N/N=C/c2cc(Br)ccc2OC(=O)c2ccccc2Cl)n[nH]1 26.7 µM [inhibitor, partial curve, poor fit]
CN(CC(=O)Nc1ccc(Cl)c(C(F)(F)F)c1)C(=O)CCCNC(=O)c1ccc(Cl)cc1 2.38 µM [inhibitor, partial curve]
CCOc1cc(/C=N/N=C(\N)c2nonc2N)cc(Br)c1OCc1cccc2ccccc12 11.2 µM [inhibitor, partial curve, poor fit]
CC(=O)Nc1ccc(NC2=C(Cl)C(=O)c3ccccc3C2=O)cc1 39.8 µM [inhibitor, single point]
O=C(ONC(=O)C1C2C=CC(C2)C1C(=O)NOC(=O)c1ccccc1)c1ccccc1 (stereo not drawn) 28.2 µM [inhibitor, single point]
O=S(=O)(c1cccs1)N1CCN(c2ccnc3cc(Cl)ccc23)CC1 22.4 µM [inhibitor, partial curve]
COc1cccc(/C=N/n2c(N)c(S(=O)(=O)c3cccs3)c3nc4ccccc4nc32)c1OC 11.2 µM [inhibitor, partial curve]
CC1CCN(S(=O)(=O)c2ccc(C(=O)Nc3nnc(-c4ccncc4)o3)cc2)CC1 11.2 µM [inhibitor, partial curve]
O=C(NCc1ccccc1)C(=O)Nc1ccc2nc3n(c(=O)c2c1)CCCCC3 1.12 µM [inhibitor, partial curve, poor fit]
CC(=O)Nc1ccc(Nc2nc(C)c([N+](=O)[O-])c(Nc3ccccc3)n2)cc1 39.8 µM [inhibitor, single point]
CCN1C(=O)/C(=C/c2nc3ccccc3c(=O)n2-c2ccccc2)c2ccccc21 31.6 µM [inhibitor, partial curve, poor fit]
C=CCC[C@@H](Cc1ccc(F)cc1)C(=O)OC[C@@H](Cc1c[nH]c2ccccc12)NC(=O)[C@H](CC=C)CC(=O)N[C@H](CO)Cc1ccccc1 28.2 µM [inhibitor, single point]
O=C(CSc1nc(-c2cccc(F)c2)[nH]c1-c1ccccc1)Nc1ccc2c(c1)OCCO2 25.1 µM [inhibitor, single point]
CCN(C(=O)c1cc2c(C)nc3ccccc3c2o1)c1cc(Cl)ccc1OC 39.8 µM [inhibitor, single point]
CC1CN(S(=O)(=O)c2ccc(NC(=O)c3cc(-c4ccccc4O)n[nH]3)cc2)CC(C)O1 (stereo not drawn) 20 µM [inhibitor, partial curve, poor fit]
CCN1CCS/C1=C/C=C/C1=[N+](CC)CCS1 12.6 µM [inhibitor, partial curve]
S=C1SCN(Cc2cccnc2)CN1Cc1cccnc1 14.1 µM [inhibitor, partial curve, poor fit]
CC(C)CN(CC(C)C)S(=O)(=O)c1ccc(C(=O)Nc2sc3c(c2C(N)=O)CC(C)(C)NC3(C)C)cc1 25.1 µM [inhibitor, single point]
COc1cc2ncn(-c3cc(OCc4ccccc4S(C)(=O)=O)c(C#N)s3)c2cc1OC 8.63 µM [inhibitor, partial curve, poor fit]
Cc1ccc2nc(NC(=O)c3cccc(-c4cc5ccccc5oc4=O)c3)sc2c1 39.8 µM [inhibitor, single point]
O=c1c(Cl)c(Cl)cnn1-c1ccccc1 39.8 µM [inhibitor, single point]
Cc1ccc2nc(N(CCCN(C)C)C(=O)c3ccc4c(c3)CCCC4)sc2c1 39.8 µM [inhibitor, single point]

Potency, active:
COc1ccc(OC)c2c1C(=O)C(Cl)=C(Cl)C2=O 7.08 µM
Cc1cccc(OCc2ccc(-c3nc(C#N)c(NCc4cccnc4)o3)o2)c1 28.2 µM
CC(=O)Nc1ccc([C@H](C)C(=O)Nc2ncc(C(C)C)s2)cc1 0.344 µM

Activity change, negative = inhibition, inactive:
O=C(Nc1ccc(C(=O)N2CCOCC2)cc1)Nc1cccc(Cl)c1 -6.96%
O=C(CSc1nnc(-c2ccccc2)n1Cc1ccco1)Nc1ccc(S(=O)(=O)N2CCCC2)cc1 -17.8%
CCOC(=O)C1(Cc2ccccc2)CCCN(Cc2cccc(C(C)=O)c2)C1 (stereo not drawn) -13.9%
COc1ccc(Br)cc1CNc1ccc(O)cc1 0%
CCCN(c1ccc(OCC)cc1)S(=O)(=O)c1ccc2c(c1)NC(=O)CO2 -0.814%
CCc1cccc(NC(=O)Cn2nc(-c3cc(C)ccc3C)ccc2=O)c1 -19.6%
COc1cc(OC)c(OC)cc1/C=N/N(C)c1ccccc1 0.642%
Cc1ccc(CN2C(=O)C3(c4ccccc42)N(c2cccc(C(F)(F)F)c2)C(=O)CS3(=O)=O)cc1 (stereo not drawn) -13.9%
Cc1ccc(S(=O)(=O)Nc2ccccc2/C=N/c2nc3ccccc3n2C(C)C)cc1 -2.59%
CCOc1ccc(NC(=O)C2CCN(c3nnnn3-c3ccccc3)CC2)cc1 -6.63%
O=C(NCc1cc(Cl)cc(Cl)c1)c1ccc2sc([C@H]3C[C@H](O)[C@@H](CO)O3)nc2c1 0%
O=C(NCc1ccc(CNC(=O)c2ccco2)cc1)c1ccco1 9.59%
O=C(Nc1cccc(-c2cn3cccnc3n2)c1)c1cc(Br)ccc1Cl -16.2%
O=C(CN1C(=O)COc2ccc(S(=O)(=O)NC3CCCC3)cc21)Nc1ccc(Cl)cc1 -17.9%
COc1ccc(C(=O)Nc2cc(C)c(O)c(-c3nc4ccccc4s3)c2)cc1OC 0.773%
CC(=O)Nc1cccc(-c2ccnc3c2CC(C(=O)Nc2cccc(NS(C)(=O)=O)c2)O3)c1 (stereo not drawn) 6.7%
Cc1nnc(NC(=O)c2nc(SCc3ccccc3F)ncc2Cl)s1 15.9%
O=C(c1ccccc1)N(Cc1nc2ccccc2c(=O)[nH]1)C1CCCC1 -15.8%
CCN(CC)C(=O)CSc1nnc(NC(=O)CCc2ccccc2)s1 1.72%

Activity change, negative = inhibition, inconclusive:
COc1ccc(-c2nn(-c3ccccc3)cc2/C=N/Nc2ccc(S(N)(=O)=O)cc2[N+](=O)[O-])cc1OC -46.5% [inhibitor]
